In PubChem BioAssay AID1963576 (National Center for Advancing Translational Sciences (NCATS), 2024):
Hit rate of the full screen: of about 46,000 compounds, about 60 (0.1%) were called active. Roughly 3% stayed inconclusive and do not appear here. The call rests on the fitted dose curve; in most records, active means well fitted inhibition curve with a large enough effect; inconclusive means small, poorly fitted or top-dose-only effect; inactive means no such curve, though single readings can be large or run the other way. This is one part of the list.

assay: Primary qHTS assay for Inhibitors of ovarian cancer metastasis using an organotypic tumor microenvironment (TME) model.; further: nearly all actives have a fitted effect of over 65% in size;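 on activity change, negative = inhibition: plate controls were DMSO wells for no effect and tomatine positive control wells for full effect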; details: SKOV3ip1-GFP adhesion/invasion on 3D omental model, fluorescence; series mostly up to 45.8 µM; activity change, negative = inhibition: at the top concentration
Outline: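 Adhesion/invasion was scored as fixed GFP-labeled SKOV3ip1 cell counts (488/509 nm), normalized to DMSO and tomatine controls. Cancer cells in serum-free medium, with four compound doses (0.36-46 umol/L), sat 2 hr at RT then 16 hr at 37 C on a 48 hr fibroblast/mesothelial/ECM culture.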

Row | Compound | activity change, negative = inhibition | outcome
1 | CCOC(=O)CN1C(=O)N(c2ccc(C)c(C)c2)S(=O)(=O)c2ccccc21 | inactive: -1.06% | 
2 | Cc1ccc(C(=O)CSc2nc3cc(C(=O)NC4CCCC4)ccc3c(=O)n2CC2CCCO2)c(C)c1 (configuration not stated) |  | inactive
3 | Oc1ccc(OCc2ccccc2)cc1 | inactive: 4.01% | 
4 | CC(C)CCNc1nc2c(-c3ccccc3)nnn2c2ccccc12 |  | inactive
5 | COC(=O)c1ccccc1NC(=O)CSc1n[nH]c(CC(C)C)n1 | inactive: -8.4% | 
6 | O=C(CC1N=C2c3ccccc3N=C(SCc3cccc(F)c3)N2C1=O)NCc1cccs1 (configuration not stated) | inactive: -3.52% | 
7 | COc1cccc(NC(=O)c2oc3ccccc3c2NC(=O)c2ccccc2C)c1 | inactive: 5.78% | 
8 | CCOc1ccc(CNC(=O)c2ccc(CSc3nc4ccncc4n3Cc3ccc(F)cc3)cc2)cc1 | inactive: 2.6% | 
9 | COc1ccc(OC)c(Nc2nc3ccccc3nc2-n2nc(C)cc2C)c1 | inactive: 2.92% | 
10 | Cc1nn2c(=O)cc(COc3ccc(/C=C(\C#N)C(=O)Nc4ccccc4C)cc3)nc2s1 |  | inactive
11 | COc1ccc(-c2nnn3c2nc(NCCc2ccc(OC)c(OC)c2)c2ccccc23)cc1 |  | inactive
12 | COc1ccc2c(c1)c1c(c(=O)n(-c3cc(Cl)ccc3C)c(=O)n1CC(=O)N1CCCC1)n2C |  | inactive
13 | Cc1ccc(CNC(=O)CCNS(=O)(=O)c2ccc3c(c2)CCCC(=O)N3)cc1 | inactive: -13.5% | 
14 | CCCCN(CCCC)CCCNC(=O)c1ccc2nc(N3CCCCC3)sc2c1 | inactive: -0.673% | 
15 | Cc1c(C(=O)OC2CCC(C)CC2)[nH]c2c1C(=O)CC(c1ccc(F)cc1)C2 (configuration not stated) | inactive: 1.84% | 
16 | Cc1ccc(Sc2c(C)nn(C(C)(C)C)c2OC(=O)CC(C)C)cc1 | inactive: -11.4% | 
17 | CCOC(=O)c1cccc(NC(=O)CCc2c(C)nn(-c3ccc(N4CCCCC4)nn3)c2C)c1 | inactive: -20.6% | 
18 | CCCCN1C(=O)c2[nH]nc(-c3ccccc3O)c2C1c1ccc(OCc2ccccc2)c(OC)c1 (configuration not stated) | inactive: -26.2% | 
19 | COc1ccccc1NC(=O)c1ncn(-c2ccccc2)n1 |  | inactive
20 | Cc1ccccc1NC(=O)c1c(NC(=O)c2ccccc2F)sc2c1CCC(C)C2 (configuration not stated) | inactive: -1.38% | 
21 | COc1ccc(Cn2ccc3nc(C)c(C(=O)N4CCN(c5ccc(F)cc5)CC4)cc3c2=O)cc1 | inactive: 9.94% | 
22 | CC(C)(C)c1[nH]cnc1C=c1[nH]c(=O)c(=Cc2ccccc2)[nH]c1=O | inactive: 0.182% [at 92.2 µM] | 
23 | CSc1ccc(C2c3c(-c4ccccc4O)n[nH]c3C(=O)N2Cc2ccncc2)cc1 (configuration not stated) | inactive: -15.6% | 
24 | Cc1ccc2nc(CSc3nnc(NC(=O)C(C)C)s3)cc(=O)n2c1 | inactive: -0.204% | 
25 | CCCCn1cc2c(c1-c1ccc(Br)cc1)c(=O)n(C)c(=O)n2C |  | inactive
26 | CCOc1ccc(-c2cc3c(=O)n(Cc4nc(-c5ccc(OCC)c(OC)c5)oc4C)ccn3n2)cc1Cl |  | inactive
27 | Cc1cccc2c(=O)cc(CSc3ccccc3NC(=O)c3cccc(Cl)c3)[nH]c12 | inactive: 1.47% | 
